Laboratory results as given in PubChem BioAssay AID1768 (National Center for Advancing Translational Sciences (NCATS), 2009).
Out of some 270,000 compounds screened, about 620 (0.23%) were called active. The inconclusive results got no clear call from the source; some entries with a clear call stand among them for comparison. Calls come from the whole dose curve; as a rule, active = well fitted inhibition curve with a large enough effect in the polarisation, with a control signal flat (not every such curve was filed as active); inconclusive = small, poorly fitted or top-dose-only effect, or effect the other way, or a change in a side signal; inactive = no such curve, though single readings can be large or run the other way; the % refers to the polarisation. A potency beside an inconclusive call is a rough fit, not a confirmed value. “Side channel” marks fits to a control or component signal instead of the main read-out.

biological target: Menin (Homo sapiens) (UniProt O00255); test: qHTS Assay for Inhibitors Targeting the Menin-MLL Interaction in MLL Related Leukemias: Competition With Texas Red Labeled MLL-derived Mutant Peptide; details: fluorescence polarization; series mostly up to 61.6 µM
Sequence of UniProt O00255 (O00255 whole entry, looked up): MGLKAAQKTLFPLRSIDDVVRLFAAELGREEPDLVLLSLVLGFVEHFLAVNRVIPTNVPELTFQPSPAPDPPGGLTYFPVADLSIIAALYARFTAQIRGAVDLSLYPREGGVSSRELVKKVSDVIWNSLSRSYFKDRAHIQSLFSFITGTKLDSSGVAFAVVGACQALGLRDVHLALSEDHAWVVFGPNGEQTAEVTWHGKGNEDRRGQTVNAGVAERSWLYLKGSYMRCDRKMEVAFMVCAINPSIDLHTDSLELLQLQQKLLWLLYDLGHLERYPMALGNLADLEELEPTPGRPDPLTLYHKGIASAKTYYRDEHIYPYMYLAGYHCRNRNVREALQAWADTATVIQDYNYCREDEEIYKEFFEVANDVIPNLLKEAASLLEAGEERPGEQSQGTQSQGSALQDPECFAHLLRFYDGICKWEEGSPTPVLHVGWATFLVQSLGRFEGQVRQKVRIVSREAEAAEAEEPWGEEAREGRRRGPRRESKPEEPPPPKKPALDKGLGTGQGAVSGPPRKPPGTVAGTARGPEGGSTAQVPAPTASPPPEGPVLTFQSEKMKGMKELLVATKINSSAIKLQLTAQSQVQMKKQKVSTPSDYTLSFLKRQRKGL
Potency is the fitted concentration of half-maximal effect; tags give direction and shape of the fitted curve or compound fluorescence and quenching.

Structure (SMILES)	Potency
Cc1ccsc1/C=N/NC(=O)c1ccc2ccccc2c1	inconclusive: 28.2 µM [fluorescent, side channel, partial curve]
CC(C)C(NS(=O)(=O)c1ccc2c(c1)OCCCO2)C(=O)O (stereo unspecified)	inconclusive: 4.47 µM [inhibitor, single point]
CCOc1ccc(NC(=O)N(CCN2CCOCC2)Cc2ccc3c(c2)CCCN3CC)cc1	inconclusive: 2 µM [inhibitor, full curve, poor fit]
COc1ccc(CNC(=O)c2ccc3ccccc3n2)cc1OC	inconclusive: 31.6 µM [inhibitor, single point]
O=C1CCC(/C=C/c2ccccc2)=NN1Cc1ccc(F)cc1	inconclusive: 39.8 µM [inhibitor, single point]
COC(=O)c1ccc(OC)c(NS(=O)(=O)c2ccc(-n3cnnn3)cc2)c1	inconclusive: 39.8 µM [fluorescent, side channel, single point]
O=C(CSc1nc(-c2cccs2)cc(C(F)(F)F)n1)Nc1cc(OCC(F)(F)F)cc([N+](=O)[O-])c1	inconclusive: 20 µM [quencher, side channel, partial curve]
CC12CCC3c4ccc(OCc5ccccc5)cc4CCC3C1CC(O)C2O (stereo unspecified)	inactive
CN1CCN(S(=O)(=O)c2ccc(NC(=O)COc3ccccc3Cl)cc2)CC1	inconclusive: 25.1 µM [fluorescent, single point]
COc1ccc(OC)c(NC(=O)c2cc(-c3ccc(C)cc3O)n[nH]2)c1	inconclusive: 15.8 µM [quencher, side channel, partial curve]
COc1ccc(-c2cnnc(N/N=C/c3ccc(C)o3)n2)cc1	inconclusive: 25.1 µM [quencher, side channel, single point]
COCc1c(Br)c(C)nc2sc3c(=O)[nH]nnc3c12	inconclusive: 44.7 µM [inhibitor, single point]
CNC(=O)NC(=O)C(C)OC(=O)c1c2c(nc3ccccc13)/C(=C/c1cccs1)CC2 (stereo unspecified)	inconclusive: 22.4 µM [quencher, side channel, partial curve]
CN=c1scc(-c2ccccc2Br)n1/N=C/c1ccc[nH]1	inconclusive: 20 µM [quencher, side channel, partial curve]
O=C1COc2ccc(C(=O)COC(=O)CCSc3ccc(Cl)cc3)cc2N1	inconclusive: 20 µM [inhibitor, single point]
CCOc1ccc(CN(C)Cc2cc(=O)oc3cc(C)c(Cl)cc23)cc1	inconclusive: 22.4 µM [fluorescent, side channel, partial curve]
